Assay results reported in the supplement of paper PMC10326071.
Some of the results follow. Most values come without repeats; read them as rough.

Each compound was assayed on SARS-CoV-2 nsp3 SARS-unique domain core (SUD-core, nsp3 residues 413-676) (assay: apparent dissociation constant Kd (single-concentration BLI fit); higher = weaker binding). Settings: 100 µM; 25 °C.

Structure (SMILES) | apparent dissociation constant Kd
CCCS(=O)(=O)Nc1ccc(F)c(-n2cc(-c3cncnc3)c3nc(N(C)C4CCN(CC)CC4)ccc32)c1F | 20.6 µM
Cc1cn([C@H]2C=C[C@@H](CO)O2)c(=O)[nH]c1=O | 7690 µM
O=c1c(O)c(-c2ccc(O)c(O)c2)oc2cc(O)cc(O)c12 | 16.7 µM
COc1ccc(C(OC[C@H]2O[C@@H](n3ccc(NC(=O)c4ccccc4)nc3=O)C[C@@H]2OP(OCCC#N)N(C(C)C)C(C)C)(c2ccccc2)c2ccc(OC)cc2)cc1 (some centres undefined) | 1020 µM
N#CC(=C(/N)Sc1ccccc1N)/C(C#N)=C(\N)Sc1ccccc1N | 169 µM
CN(C)CCCn1cc(C2=C(c3c[nH]c4ccccc34)C(=O)NC2=O)c2ccccc21 | 281 µM
CC(C)n1cnc2c(NCc3cccc(C(F)(F)F)c3)ncnc21 | 3440 µM
N=c1ccn2c(n1)O[C@H]1[C@H](O)[C@@H](CO)O[C@H]12 | 164 µM
Oc1cc(O)cc(/C=C/c2ccc(O)c(O)c2)c1 | 28 µM
Cn1cc(C2=C(c3cn(CCCSC(=N)N)c4ccccc34)C(=O)NC2=O)c2ccccc21 | 42.8 µM
CC(C)(C)S(=O)(=O)c1cc2c(Nc3ccc4scnc4c3)ccnc2cc1OCCOCCOCCOCCOCC(=O)Nc1cccc2c1CN(C1CCC(=O)NC1=O)C2=O (centres undefined) | 6360 µM
CC(c1ccc(-c2cnc3c(-c4ccc(S(N)(=O)=O)c5ccccc45)cnn3c2)cc1)N1CCCC1 (centres undefined) | 2970 µM
O=C(O[C@@H]1Cc2c(O)cc(O)cc2O[C@@H]1c1cc(O)c(=O)c2c(O)c(O)cc([C@H]3Oc4cc(O)cc(O)c4C[C@H]3OC(=O)c3cc(O)c(O)c(O)c3)c2c1)c1cc(O)c(O)c(O)c1 | 2.08 µM
Cc1nc2ccc(-n3ncc(C(=O)c4cc5ccccc5[nH]4)c3N)cc2[nH]1 | 110 µM
N#Cc1ccc(COc2ccc(-c3cccc4nc(NC(=O)C5CC5)nn34)cc2)cn1 | 93.1 µM
Nc1nc(Nc2ccc(S(N)(=O)=O)cc2)nn1C(=O)c1c(F)cccc1F | 3820 µM
C[C@H]1CN(C2COC2)CCN1c1ccc(Nc2cc(-c3ccnc(N4CCn5c(cc6c5CC(C)(C)C6)C4=O)c3CO)cn(C)c2=O)nc1 | 3390 µM
Cn1c(=O)c2[nH]cnc2n(C)c1=O | 121 µM
COCCNCc1ccc(-c2cc3nccc(Oc4ccc(NC(=S)NC(=O)Cc5ccc(F)cc5)cc4F)c3s2)nc1 | 141 µM
O=C(O)c1ccc2c(c1)nc(Nc1cccc(Cl)c1)c1ccncc12 | 1470 µM

Structure (SMILES) | apparent dissociation constant Kd
Nc1ncnc2c1ncn2[C@H]1CC[C@@H](CO)O1 | 138 µM
COCCOCCc1c(C)c2cc(OC)c(O)c(C=O)c2oc1=O | 2260 µM
O=c1c(-c2ccc(O)cc2)coc2cc(O)cc(O)c12 | 2120 µM
CNC(=O)c1cc(Oc2ccc(NC(=O)Nc3cc(C(C)(C)C)nn3-c3ccc4ncccc4c3)c(F)c2)ccn1 | 12800 µM
CCN1CCN(Cc2ccc(NC(=O)c3ccc(C)c(Oc4ncnc5[nH]c(C)cc45)c3)cc2C(F)(F)F)CC1 | 2920 µM
OC[C@H]1O[C@@H](n2cnc3c(NC4CCCC4)ncnc32)[C@H](O)[C@@H]1O | 816 µM
CCOc1cc(N2CCC(O)CC2)ccc1Nc1ncc2c(n1)N(C)c1ccccc1C(=O)N2C | 8200 µM
Cc1ccc(NC(=O)c2ccc(CN3CCN(C)CC3)cc2)cc1Nc1nc(-c2cccnc2)cs1 | 9250 µM
OC[C@H]1O[C@@H](n2cnc3c2ncn2ccnc32)C[C@@H]1O | 12100 µM
Cc1nc(Nc2ncc(C(=O)Nc3c(C)cccc3Cl)s2)cc(N2CCN(C(=O)COCCOCCOCCNC(=O)[C@H](CC(C)C)NC(=O)[C@@H](O)[C@H](N)Cc3ccccc3)CC2)n1 | 3730 µM
CC(C)=CCC[C@](C)(O[C@@H]1O[C@H](CO[C@@H]2O[C@H](CO)[C@@H](O)[C@H](O)[C@H]2O)[C@@H](O)[C@H](O)[C@H]1O)[C@H]1CC[C@]2(C)[C@@H]1[C@H](O)C[C@@H]1[C@@]3(C)CC[C@H](O[C@@H]4O[C@H](CO)[C@@H](O)[C@H](O)[C@H]4O[C@@H]4O[C@H](CO)[C@@H](O)[C@H](O)[C@H]4O)C(C)(C)[C@@H]3CC[C@]12C | 3250 µM
C=C(C)[C@H](C)c1cc(/C=C/C(=O)c2ccc(O)cc2)c(OC)cc1O | 10100 µM
COc1ncc(-c2ccc3ncc(Cl)c(=O)n3c2)cc1NS(=O)(=O)c1ccc(F)cc1F | 50.6 µM
Nc1[nH]c(=O)ncc1F | 50.8 µM
CN(C)CCOc1ccc(-c2nc(-c3ccc4c(c3)CC/C4=N/O)c(-c3ccncc3)[nH]2)cc1 | 3990 µM
Cc1cc(Nc2cc(N3CCN(C)CC3)nc(Sc3ccc(NC(=O)C4CC4)cc3)n2)n[nH]1 | 1020 µM
COc1ccc2nc3ccc(OC)cc3c(SCCCN)c2c1 | 17700 µM
COc1cc(OC)cc(N(CCNC(C)C)c2ccc3ncc(-c4cnn(C)c4)nc3c2)c1 | 1650 µM
O=C1c2c(O)cc(O)cc2O[C@H](c2cc(O)c(O)c(O)c2)[C@H]1O | 15.5 µM
